In assay [1] the target is T1, myc-NIK (NIK N-terminally fused to the myc tag) (human, UniProt Q99558 1-947).
T1 construct: Expressed in HEK293T cells for co-immunoprecipitation, the reporter test and the kinase test; also called myc-tagged NIK; wild type NIK
Description: western blot of CD70/CD27 receptor complexes (FIG. 6d). As for the experimental part:
(§1) Transfections, immunoblotting and immunoprecipitations were performed as described in Example 2 and Example 3 of the Examples section. For immunoprecipitation of the CD70/CD27 ligand-receptor complexes from resting PBMC and Ramos cells, cell lysates were prepared as described for the kinase tests aforementioned and incubated for 4 hours at 4° C. with 25 μl of 50% M2-FLAG agarose beads per ml of lysate. The TNF-receptor complex was precipitated as described (Zhang et al., 2000). The signalosome from cell lysates was immunoprecipitated using a 1:1 mixture of two different antibodies against IKK1 (M-280 and H-744, Santa Cruz). Immunoprecipitation was allowed to continue for 2 hours at 4° C., using 10 μg of anti-IKKα antibodies adsorbed to 25 μl of 50% protein-A-Sepharose beads per ml of lysate.
In NIK− cells, recruitment to the p55 TNF receptor occurred just as effectively as in the wild type cells (FIG. 6c, right panel). In contrast, recruitment of the signalosome components to CD27 was completely abolished (FIGS. 6c, d, left panels). Introduction of the wild type NIK, but not of “kinase-dead” NIK, to the NIK− cells reintated the recruitment in response to CD70 (FIG. 6d, middle and right panels). […] This recruitment could be observed both in cells expressing the wild type enzyme and in those that expressed its “[…]” mutant (FIG. 6d). […]
Background: In western blotting, separated proteins are transferred to a membrane and probed.

In another assay the target is T2, IKK2, endogenous (human, UniProt O14920 1-756).
T2 construct: mature; also called IKKβ
T2 sequence (looked up): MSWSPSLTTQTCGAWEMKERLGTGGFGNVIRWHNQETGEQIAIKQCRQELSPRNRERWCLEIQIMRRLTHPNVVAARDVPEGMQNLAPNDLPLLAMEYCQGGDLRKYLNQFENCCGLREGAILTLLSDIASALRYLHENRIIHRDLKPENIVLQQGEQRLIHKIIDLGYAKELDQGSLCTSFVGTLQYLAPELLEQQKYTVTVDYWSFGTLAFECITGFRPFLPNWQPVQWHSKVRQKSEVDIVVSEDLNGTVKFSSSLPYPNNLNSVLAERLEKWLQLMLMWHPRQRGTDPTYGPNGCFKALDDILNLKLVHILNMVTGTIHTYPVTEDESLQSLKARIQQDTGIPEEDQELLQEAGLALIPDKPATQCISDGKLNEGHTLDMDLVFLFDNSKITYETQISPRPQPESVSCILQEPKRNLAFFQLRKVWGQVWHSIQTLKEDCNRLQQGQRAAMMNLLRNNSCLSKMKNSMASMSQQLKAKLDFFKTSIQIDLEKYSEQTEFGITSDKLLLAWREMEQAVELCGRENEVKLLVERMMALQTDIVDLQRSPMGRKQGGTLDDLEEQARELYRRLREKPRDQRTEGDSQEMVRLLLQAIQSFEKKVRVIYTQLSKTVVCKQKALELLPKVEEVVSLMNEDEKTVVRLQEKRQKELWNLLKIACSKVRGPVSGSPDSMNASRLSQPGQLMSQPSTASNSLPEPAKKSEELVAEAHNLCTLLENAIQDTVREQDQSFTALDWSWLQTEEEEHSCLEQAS
Kind of assay: western blot of CD70/CD27 receptor complexes (FIGS. 6a-d). As for the experimental part:
as §1

In another assay the target is T3, NEMO, endogenous (human, UniProt Q9Y6K9).
T3 construct: mature; also called IKKγ
The description is as above. Here is the method:
as §1

For a further assay, the target named is T4, NF-κB2/p100, endogenous (human, UniProt Q00653 1-900).
T4 construct: mature
T4 sequence (looked up): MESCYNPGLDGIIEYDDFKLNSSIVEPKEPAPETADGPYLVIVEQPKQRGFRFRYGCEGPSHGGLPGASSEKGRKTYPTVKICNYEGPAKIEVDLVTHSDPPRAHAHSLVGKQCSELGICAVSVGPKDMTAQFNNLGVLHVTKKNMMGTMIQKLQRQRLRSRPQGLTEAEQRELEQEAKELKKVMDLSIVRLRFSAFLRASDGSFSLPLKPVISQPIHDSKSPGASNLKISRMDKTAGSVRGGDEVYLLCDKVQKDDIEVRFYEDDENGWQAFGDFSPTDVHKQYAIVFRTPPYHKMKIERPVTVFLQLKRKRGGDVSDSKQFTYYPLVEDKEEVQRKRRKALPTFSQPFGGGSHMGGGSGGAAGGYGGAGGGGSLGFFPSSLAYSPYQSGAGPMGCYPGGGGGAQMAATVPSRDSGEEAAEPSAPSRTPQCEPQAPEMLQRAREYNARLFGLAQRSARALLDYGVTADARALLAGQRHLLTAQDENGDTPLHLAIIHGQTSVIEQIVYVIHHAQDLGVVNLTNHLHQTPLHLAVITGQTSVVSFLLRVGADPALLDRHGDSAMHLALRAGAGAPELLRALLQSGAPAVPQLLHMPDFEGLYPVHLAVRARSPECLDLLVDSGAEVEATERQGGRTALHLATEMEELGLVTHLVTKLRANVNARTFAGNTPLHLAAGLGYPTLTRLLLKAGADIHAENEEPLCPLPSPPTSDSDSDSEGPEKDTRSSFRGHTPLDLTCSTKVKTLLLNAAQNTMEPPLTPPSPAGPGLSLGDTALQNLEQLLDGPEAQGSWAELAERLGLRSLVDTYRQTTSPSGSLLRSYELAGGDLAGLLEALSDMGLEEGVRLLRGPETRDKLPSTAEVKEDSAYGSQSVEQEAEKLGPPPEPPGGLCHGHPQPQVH
Description: western blot of the CD70/CD27 receptor complex precipitated from Ramos cells (FIG. 6a). Here is the method: as §1

In the next assay the target is T5, p50, endogenous (human, UniProt P19838 1-433).
T5 construct: also called NF-κB1 processed form
T5 sequence (looked up): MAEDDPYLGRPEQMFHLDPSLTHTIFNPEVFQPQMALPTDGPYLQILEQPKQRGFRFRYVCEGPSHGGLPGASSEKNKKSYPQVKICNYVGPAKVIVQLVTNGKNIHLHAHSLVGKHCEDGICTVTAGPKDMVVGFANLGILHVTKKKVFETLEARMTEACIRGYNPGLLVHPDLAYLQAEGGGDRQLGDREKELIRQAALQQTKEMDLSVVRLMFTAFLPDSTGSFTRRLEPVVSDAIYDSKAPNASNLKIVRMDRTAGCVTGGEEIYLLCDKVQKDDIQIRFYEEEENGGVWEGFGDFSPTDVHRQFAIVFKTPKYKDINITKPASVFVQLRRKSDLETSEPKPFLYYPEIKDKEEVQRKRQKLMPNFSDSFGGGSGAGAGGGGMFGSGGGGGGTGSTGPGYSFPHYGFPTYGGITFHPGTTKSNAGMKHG
Kind of assay: western blot of the CD70/CD27 receptor complex from Ramos cells (FIG. 6a). As for the experimental part: as §1

For the next assay, the target named is T6, p65, endogenous (human, UniProt Q04206).
T6 construct: mature; also called RelA
The description is as above. Here is the method:
as §1

Another assay concerns the target T7, IκBα, endogenous (human, UniProt P25963 1-317).
T7 construct: mature
T7 sequence (looked up): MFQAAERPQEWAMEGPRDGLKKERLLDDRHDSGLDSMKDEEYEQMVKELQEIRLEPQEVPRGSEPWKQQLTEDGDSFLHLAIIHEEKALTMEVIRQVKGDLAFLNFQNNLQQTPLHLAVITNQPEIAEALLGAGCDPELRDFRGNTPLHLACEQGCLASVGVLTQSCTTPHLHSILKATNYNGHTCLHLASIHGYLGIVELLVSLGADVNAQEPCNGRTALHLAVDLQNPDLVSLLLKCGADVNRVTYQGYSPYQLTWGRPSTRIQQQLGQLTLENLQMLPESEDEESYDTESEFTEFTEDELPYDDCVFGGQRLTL
The description is as above. Here is the method: as §1

The next assay deals with T8, IKK1, endogenous (human, UniProt O15111 1-745).
T8 construct: mature; also called IKKα
T8 sequence (looked up): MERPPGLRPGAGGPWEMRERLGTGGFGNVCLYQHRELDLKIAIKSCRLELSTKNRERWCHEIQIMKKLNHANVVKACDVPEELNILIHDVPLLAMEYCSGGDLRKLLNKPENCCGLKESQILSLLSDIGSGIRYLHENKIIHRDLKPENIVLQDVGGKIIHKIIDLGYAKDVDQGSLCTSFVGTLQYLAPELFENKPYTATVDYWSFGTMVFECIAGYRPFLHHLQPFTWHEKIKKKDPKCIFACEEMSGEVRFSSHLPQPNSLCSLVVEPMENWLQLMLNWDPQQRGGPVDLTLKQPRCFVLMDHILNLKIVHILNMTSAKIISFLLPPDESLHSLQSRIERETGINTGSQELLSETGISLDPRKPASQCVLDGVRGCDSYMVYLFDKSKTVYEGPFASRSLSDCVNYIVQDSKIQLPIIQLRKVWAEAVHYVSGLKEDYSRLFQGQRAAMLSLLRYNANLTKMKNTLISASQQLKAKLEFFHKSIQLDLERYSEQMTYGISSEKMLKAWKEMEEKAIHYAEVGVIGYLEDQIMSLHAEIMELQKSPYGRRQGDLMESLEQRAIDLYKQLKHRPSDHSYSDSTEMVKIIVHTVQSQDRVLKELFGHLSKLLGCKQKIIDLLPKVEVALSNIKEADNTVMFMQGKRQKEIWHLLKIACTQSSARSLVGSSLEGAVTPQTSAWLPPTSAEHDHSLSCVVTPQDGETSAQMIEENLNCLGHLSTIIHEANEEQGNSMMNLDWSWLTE
Description: western blot of the CD70/CD27 receptor complex from Ramos cells, 15 min after CD70 (FIG. 5c).

B1: CD27, endogenous on Ramos cells and PBMC (receptor)
chain: not shown
notes: whole, on cells; Receptor complexes were precipitated from cell lysates through the FLAG-tagged CD70 ligand; also called CD27 receptor
B1: the binding result in assay [1] is reported as “binds”; with IKK2, endogenous, “binds”; with NEMO, endogenous it was “binds”; with NF-κB2/p100, endogenous, “no binding”; in the assay with p50, endogenous it was “binds”; in the assay with p65, endogenous it was “binds”. In addition, the binding result was “binds” with IκBα, endogenous and “binds” with IKK1, endogenous.

The values above are taken from patent publication US20080025968A1 (YEDA RESEARCH AND DEVELOPMENT, published 2008).
